Measurements reported in PubChem BioAssay AID1345082 (National Center for Advancing Translational Sciences (NCATS), 2018).
Values joined by “and” are separate entries in the source; they are usually repeats but may differ in a detail not shown here. Equal values may be shown once. Out of some 94,000 compounds screened, about 4,000 (4.3%) were called active. This list was built around the results that the source calls inconclusive (neither active nor inactive); the mix of calls is not that of the screen. Calls follow the shape of the dose curve; as a rule, active = well fitted inhibition curve with a large enough effect; inconclusive = small, poorly fitted or top-dose-only effect; inactive = no such curve, though single readings can be large or run the other way. Where the call is inconclusive, the potency comes from a doubtful curve fit.

Assay: Cytotoxic Profiling in NIH 3T3 Cell Line of Diverse Libraries Using Quantitative High-Throughput Screening; also: nearly all actives have a fitted effect of over 55% in size
Details: NIH 3T3 viability, CellTiter-Glo ATP luminescence, 48-72 h; series mostly up to 96.7 µM
Procedure, shortened: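 Cytotoxicity was measured by CellTiter-Glo ATP luminescence after 48 or 72 h compound exposure at 37 °C. Mouse NIH 3T3 fibroblasts were seeded at 400 cells/well and dosed by 23 nL pin transfer.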
Potency is read from the fitted curve at half-maximal effect; tags tell the direction and shape of the fitted curve.

SMILES | Potency
Cn1cccc1C(=O)N[C@H]1C[C@@H](C(=O)O)N(C(=O)CCCC(=O)N2C[C@@H](NC(=O)c3cccs3)C[C@H]2C(=O)O)C1 | inactive
CN(Cc1ccc(F)cc1)Cc1ccccc1C(F)(F)F | inconclusive: 89.1 µM [inhibitor, partial curve, poor fit]
CN(C(=O)[C@@H]1C[C@H](c2cccc(C(F)(F)F)c2)N(Cc2cnn(C)c2)C1)c1ccccc1 | inconclusive: 44.7 µM [inhibitor, partial curve, poor fit]
COc1ccc(-c2ccc3ccccc3n2)c(OC)c1OC | inconclusive: 50.1 µM [inhibitor, partial curve, poor fit]
O=C(c1cccnc1)N1CCC2(CC1)CC(CCOc1ccncc1)CCO2 (stereo not drawn) | inactive
O=C(c1ccc2nnc(-c3cccnc3)n2c1)N1CCOCC1 | inactive
O=C(CN1C(=O)NC2(CCS(=O)(=O)CC2)C1=O)NC1CCCCC1 | inactive
CC1CCN(C(=O)c2cc(CN3CCC(Cc4ccccc4)CC3)on2)CC1 | inactive
Cc1ccccc1OCc1nc(C2CN(C(=O)c3cc4ccccc4[nH]3)C2)no1 | inactive
O=C(c1ccc2nc[nH]c2c1)N1CCC(Oc2ccccc2-c2nc(C3CC3)no2)C1 (stereo not drawn) | inconclusive: 50.1 µM [inhibitor, single point]
O=c1[nH]c(C2CCN(Cc3cccc(-c4cccs4)c3)CC2)nc2ccc(F)cc12 | active: 35.5 µM and active: 28.2 µM
Cc1ccc(Nc2ccnc(N3CCCC(C(=O)NCC4CC4)C3)n2)cc1 (stereo not drawn) | active: 35.5 µM
Cn1nccc1-c1ncc2c(n1)OCCN(c1cccc(C(F)(F)F)c1)C2=O | inconclusive: 89.1 µM [inhibitor, partial curve, poor fit]
O=C(NCCc1ccccc1)C1CCCN(C2CCN(Cc3nccs3)CC2)C1 (stereo not drawn) | inactive
Cc1nc(CN2Cc3nc(-c4cn[nH]c4)ccc3OCC2=O)cs1 | inconclusive: 100 µM [inhibitor, partial curve, poor fit]
COc1ccc(-c2cc(-c3c(C)noc3C)c3cncn3c2)cn1 | active: 50.1 µM
O=C(NCc1ccc(F)cc1)c1nc(-c2cccnc2)c2ccccn12 | inconclusive: 39.8 µM [inhibitor, partial curve, poor fit]
Nc1cc(N2CC[C@@H](N3CCN(CCc4ccccc4)CC3)[C@H](O)C2)nc(N)n1 | inconclusive: 100 µM [inhibitor, single point]
O=C([C@@H]1Cc2nc[nH]c2CN1Cc1ccc(Cl)cc1)N1CCC(Cc2ccccc2)CC1 | inconclusive: 50.1 µM [inhibitor, partial curve, poor fit]
Cc1cc(C)c(CNC(=O)c2cc(-c3cccc4[nH]ccc34)cc3ncn(C)c23)c(=O)[nH]1 | inconclusive: 50.1 µM [inhibitor, partial curve]
COc1cccc(CC(=O)N2CCC(Cc3nc(-c4ccncc4)n[nH]3)C2)c1 (stereo not drawn) | inconclusive: 10 µM [inhibitor, full curve]
O=C(Nc1ccon1)c1cnc2n[nH]c(-c3ccccc3)c2n1 | active: 31.6 µM
CN(Cc1ccc(F)cc1)S(=O)(=O)c1cccc(C(F)(F)F)c1 | inconclusive: 35.5 µM [inhibitor, single point]

SMILES | Potency
COc1ccc(CN2C[C@@H](CO)[C@H](NC(C)=O)C2)cc1Br | inactive
O=C(c1cc(-c2cccc(C(F)(F)F)c2)c2nncn2n1)N1CCC(c2ccccc2)CC1 | inconclusive: 39.8 µM [inhibitor, partial curve]
Cc1ccc(CC2CCOC3(CCN(C(=O)c4cccs4)CC3)C2)cc1 (stereo not drawn) | inconclusive: 44.7 µM [inhibitor, partial curve, poor fit]
CN1Cc2nc(-c3cnn(Cc4ccccc4)c3)ccc2OCC1=O | inconclusive: 89.1 µM [inhibitor, partial curve]
CC1=C[C@@H](CNC(=O)COc2ccccc2)[C@H](C(C)C)C[C@H]1CC(=O)Nc1ccccn1 | inconclusive: 50.1 µM [inhibitor, partial curve]
Cc1nc(C)c(C(=O)N2CCCC(c3nn(C)c(=O)n3C(C)C)C2)s1 (stereo not drawn) | inconclusive: 44.7 µM [inhibitor, partial curve, poor fit]
CCc1ccc(NC(=O)Cn2c(N(C)Cc3ccccc3)nc(C)cc2=O)cc1 | inconclusive: 44.7 µM [inhibitor, partial curve, poor fit]
O=C1CCCCCN1C1CCN(Cc2ccsc2)CC1 | inactive
Cc1nnc2ccc(N3CCC(N[S+](=O)([O-])c4cccs4)CC3)nn12 | inconclusive: 50.1 µM [inhibitor, partial curve, poor fit]
C1CCC2(CC1)C(OCC1CC1)CN2C1CCNCC1 (stereo not drawn) | inconclusive: 50.1 µM [inhibitor, partial curve, poor fit]
Cc1nn(-c2ccccc2)c2c1C(C)N(C1CN(C(=O)Cc3cccc(Cl)c3)C1)C2=O (stereo not drawn) | inconclusive: 50.1 µM [inhibitor, partial curve, poor fit]
Cc1nnc2ccc(N3CCCN([S+](=O)([O-])c4cccs4)CC3)nn12 | inconclusive: 56.2 µM [inhibitor, partial curve, poor fit]
COc1ccccc1C(=O)NC1CCN(CCn2nc3n(c2=O)CCCC3)C1 (stereo not drawn) | inactive
O=C(Nc1cccc(C(F)(F)F)c1)N1CCCC(Cn2cnc3cccnc32)C1 (stereo not drawn) | inactive
N[C@@H]1CCN(Cc2cccc(Oc3ccc(F)cc3)c2)C[C@H]1O | inconclusive: 56.2 µM [inhibitor, partial curve, poor fit]
CCc1nc2c(c(-c3ccc(Cl)cc3)n1)CCN(Cc1ccc(C(F)(F)F)cc1)CC2 | inactive
O=C(NCc1ccccc1)c1ccccc1OC1CN(Cc2ccc(F)c(F)c2)C1 | active: 39.8 µM
COc1cccc(CN2CCOC3(CCN([S+](=O)([O-])c4ccccc4C)CC3)C2=O)c1 | inconclusive: 44.7 µM [inhibitor, partial curve, poor fit]
Cn1cc(CN2CCNc3cc(Nc4ccccc4)ncc3C2)cn1 | inconclusive: 10 µM [inhibitor, full curve]
CCOC(=O)C1CCN(C(=O)c2cn3cc(-c4cccnc4)sc3n2)CC1 | inactive
CS(=O)(=O)N(C1CC1)C1CCOC2(CCN(C(=O)COc3ccccc3)CC2)C1 (stereo not drawn) | inactive
O=C(NCc1ccoc1)c1ccc2nc(-c3ccc(F)cc3)cn2c1 | inconclusive: 50.1 µM [inhibitor, partial curve, poor fit]
Cn1c(CCNC(=O)Cn2nc3c(cc2=O)CCCC3)nc2ccccc21 | inactive

SMILES | Potency
O=C1CC2CCN([S+](=O)([O-])c3cccs3)CC2CCN1 (stereo not drawn) | inactive
O=C(NCCc1cccs1)c1cc2n(n1)CC(c1ccc(Cl)cc1)OC2 (stereo not drawn) | inconclusive: 50.1 µM [inhibitor, partial curve, poor fit]
Cc1ccc(NC(=O)N2CCC3(CC2)SCC(=O)N3Cc2ccco2)cc1Cl | inconclusive: 39.8 µM [inhibitor, partial curve]
CC(C)NC(=O)NCc1nnc2n1C(C(=O)N1CCOCC1)CC2 (stereo not drawn) | inactive
COCc1ccc2c(c1)c(OC(C)(C)C(=O)NCCc1ccccn1)nn2CCC(C)C | inconclusive: 89.1 µM [inhibitor, partial curve]
Cc1c(Cl)cc(C(=O)NCC2CNCCOC2)cc1Cl (stereo not drawn) | inconclusive: 79.4 µM [inhibitor, partial curve, poor fit]
Cc1cc(CN2CCn3c(nnc3-c3ccc(Cl)cc3)C2)no1 | inactive
CC(C)(C)CC(=O)Nc1cnc(-c2cccc(Cl)c2)nc1 | active: 31.6 µM
O=C(O)CCCNC(=O)Cn1nc2c(cc1=O)CCCCC2 | inactive
O=C1CC(c2ccccc2)N(C(=O)CNC(=O)c2ccc3ccccc3n2)CCCCCCN1 (stereo not drawn) | inactive
CC(=O)N1CCCC1c1nc(C2CN(Cc3cc(F)c(F)cc3F)C2)no1 (stereo not drawn) | inactive
COc1ccc(NC(=O)Nc2cccn3nc(C(C)C)nc23)cc1 | inconclusive: 44.7 µM [inhibitor, partial curve, poor fit]
COc1cc(CNC(=O)c2cnc3c(c2)N(C(=O)Cc2ccccc2OC)CCC3)cc(OC)c1 | inactive
CN(C)c1ccc(-c2ccnc(N[C@H]3CO[C@H]4[C@@H]3OC[C@H]4OC(=O)NCc3ccccc3)n2)cc1 | inactive
CN1CCN(C(=O)C2CCc3nnc(-c4cccc(C(F)(F)F)c4)n32)CC1 (stereo not drawn) | inactive
CC(C)(C)CC(=O)Nc1ccc([C@@H](O)[C@H]2COCC(=O)N2Cc2ccc(F)cc2)cc1 | inconclusive: 112 µM [inhibitor, partial curve, poor fit]
COc1ccc(-c2nc(C)nc3c2CCN([S+](=O)([O-])c2cccc(OC)c2)CC3)cc1 | inactive
COc1ncc(-c2n[nH]c3c2CC(=O)N(CCOc2ccccc2)C3)cn1 | inconclusive: 7.94 µM [inhibitor, full curve, poor fit]
Cc1noc(C)c1S(=O)(=O)N1CCCC(Cc2noc(-c3ccncc3)n2)C1 (stereo not drawn) | inconclusive: 44.7 µM [inhibitor, partial curve, poor fit]
Cc1ccc(-c2cc(N3CCCN(C(=O)Cc4ccsc4)CC3)n[nH]2)cc1C | inconclusive: 44.7 µM [inhibitor, partial curve, poor fit]
O=[S+]([O-])(Nc1cccnc1)c1ccc2c(c1)OCCN(Cc1ccccc1F)C2 | inconclusive: 25.1 µM [inhibitor, full curve, poor fit]
CCOc1ccccc1CN1CCC2(CCN(C(=O)c3ccccc3F)CC2)Oc2ccccc21 | inconclusive: 35.5 µM [inhibitor, partial curve, poor fit]
